# Laboratory results reported in PubChem BioAssay AID1468 (National Center for Advancing Translational Sciences (NCATS), 2008).
# Screen size: about 280,000 compounds; about 1,100 (0.39%) were called active. Inconclusive results, whose numbers are uncertain, are shown with a selection of clear calls. Calls follow the shape of the dose curve; as a rule, active = well fitted inhibition curve with a large enough effect; inconclusive = small, poorly fitted or top-dose-only effect, or effect the other way; inactive = flat fitted curve, though single readings scatter. No potency is given beside an inconclusive call; the fits are too rough.
# Target: Microtubule-associated protein tau (Homo sapiens) (UniProt P10636)
# Sequence of UniProt P10636 (P10636 whole entry, looked up): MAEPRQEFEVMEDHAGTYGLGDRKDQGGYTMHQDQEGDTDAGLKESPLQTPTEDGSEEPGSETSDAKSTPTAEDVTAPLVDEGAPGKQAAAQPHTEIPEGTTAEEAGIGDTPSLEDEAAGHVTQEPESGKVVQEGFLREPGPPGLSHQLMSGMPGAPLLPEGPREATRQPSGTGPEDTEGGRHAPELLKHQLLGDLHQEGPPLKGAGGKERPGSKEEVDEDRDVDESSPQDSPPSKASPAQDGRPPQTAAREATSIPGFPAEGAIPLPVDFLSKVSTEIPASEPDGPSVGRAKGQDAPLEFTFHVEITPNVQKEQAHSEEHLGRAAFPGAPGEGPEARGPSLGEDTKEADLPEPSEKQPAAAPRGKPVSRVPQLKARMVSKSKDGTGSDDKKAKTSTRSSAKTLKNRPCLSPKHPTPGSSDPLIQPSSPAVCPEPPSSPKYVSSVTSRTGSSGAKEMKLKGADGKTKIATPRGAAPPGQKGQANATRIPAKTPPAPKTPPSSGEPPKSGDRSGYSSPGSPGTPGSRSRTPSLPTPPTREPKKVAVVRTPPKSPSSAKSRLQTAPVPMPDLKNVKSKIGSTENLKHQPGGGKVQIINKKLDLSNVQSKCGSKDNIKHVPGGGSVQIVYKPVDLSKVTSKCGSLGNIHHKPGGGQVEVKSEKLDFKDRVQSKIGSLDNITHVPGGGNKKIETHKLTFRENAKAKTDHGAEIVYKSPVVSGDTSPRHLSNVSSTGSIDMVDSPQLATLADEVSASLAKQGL
# Test: qHTS for Inhibitors of Tau Fibril Formation, Fluorescence Polarization; also: nearly all actives have a fitted effect of over 55% in size
# Conditions: K18 P301L tau heparin fibrillization, Alexa594 FP, 6 h; series mostly up to 57.7 µM; activity, negative = inhibition: at the top concentration
# Method in brief: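 Recombinant K18 P301L […], labeled with Alexa 594 at 0.24 uM over 15 uM unlabeled; heparin inducer 20 uM final; 37 C, 6 hr; FP endpoint.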
# % is scaled to controls: 0 for no effect and ±100 for the full control effect; potency is read from the fitted curve at half-maximal effect; tags tell the direction and shape of the fitted curve.
Structure (SMILES),Potency,"activity, negative = inhibition"
Cc1cc2nc3c(=O)n(Cc4ccccc4)c(=O)[nH]c3nc2cc1N,"inconclusive [inhibitor, single point]",
CCC1=Nc2cc(C(=O)NC3CCCC3)ccc2Sc2ccc(Cl)cc21,"inconclusive [inhibitor, single point]",
Cc1cc(C)c2nc(SCC(=O)NCCC3=CCCCC3)cc(C)c2c1,"inconclusive [activator, single point]",
CCCC1CC(C)(c2csc(Nc3ccc(OCC)cc3)n2)OC1=O (centres undefined),"inconclusive [activator, single point]",
Cc1ccc(C(=O)n2c3ccccc3c3ccccc32)cc1,"inconclusive [inhibitor, single point]",
CCOc1ccc(C(=O)OCn2nnc3ccccc3c2=O)cc1OC,"inconclusive [inhibitor, single point]",
COc1cc(/C=N/O)cc(Br)c1OCc1ccc(Cl)cc1,"inconclusive [inhibitor, partial curve]",
O=C1CC(c2ccccc2)CC(=O)C1CS(=O)(=O)c1ccccc1 (centres undefined),"inconclusive [inhibitor, single point]",
COc1ccc(C2C(C(=O)NCc3ccccn3)CCC(=O)N2c2cc(OC)c(OC)c(OC)c2)cc1 (centres undefined),,inactive: 2.16%
Cc1cc(C)c2c(NC(=O)c3ccccc3Cl)c(C(=O)Nc3ccc(C)c(C)c3)sc2n1,"inconclusive [inhibitor, partial curve]",
CN(C(=O)CSc1nc2ccc(NC(=O)c3ccco3)cc2s1)c1ccccc1,"inconclusive [inhibitor, single point]",
Cc1cccc(N2CCN(C(=O)c3ccc(CNc4c(N5CCC(C)CC5)c(=O)c4=O)cc3)CC2)c1C,,inactive: 7.74%
COc1ccc(-c2nc(-c3ccccc3)c(-c3cccs3)[nH]2)cc1OC,"inconclusive [activator, full curve]",
O=[N+]([O-])c1cccc(-c2nc3ccccc3s/c2=N/O)c1,"inconclusive [inhibitor, single point]",
COc1ccc(NC(=O)Nc2ccc(Cc3ccncc3)cc2)c(OC)c1,"inconclusive [activator, single point]",
N#CC(C#N)=C1C=CC=CN1/C(=C\c1ccco1)C(=O)c1ccc(Cl)cc1,active: 28.2 µM,
CCOC(=O)c1sc(C)c2c1NC1(CCCCCC1)NC2=O,"inconclusive [inhibitor, partial curve, poor fit]",
O=[N+]([O-])c1ncccc1Oc1nc(-c2cccnc2)nc2ccccc12,"inconclusive [inhibitor, partial curve]",
COc1ccc(-c2c(C#N)c(N)nc3sc(C(=O)c4ccc(C)cc4)c(N)c23)cc1,"inconclusive [inhibitor, single point]",
O=C(COCc1cc(-c2ccc(F)cc2)on1)Nc1cc(Cl)cc(Cl)c1,"inconclusive [inhibitor, partial curve]",
CN(Cc1ccccc1)S(=O)(=O)c1ccc2[nH]cc(C(=O)NCC3CCCO3)c(=O)c2c1 (centres undefined),"inconclusive [inhibitor, partial curve]",
Cc1ccc(-n2ncc3c(NCCc4ccccc4)ncnc32)cc1Cl,"inconclusive [inhibitor, partial curve]",

Structure (SMILES),Potency,"activity, negative = inhibition"
C=CCC(C)(O)CCc1ccccc1 (centres undefined),,inactive: 1.63%
COc1cccc(OCCn2c(-c3ccc(Cl)cc3)nc3ccccc3c2=O)c1,,inactive: -7.32%
Oc1c(CN2CCOCC2)cc(-c2ccccc2)cc1CN1CCOCC1,,inactive: -2.41%
COCCCNc1oc(-c2ccc(COc3ccccc3C)o2)nc1C#N,"inconclusive [activator, partial curve, poor fit]",
NS(=O)(=O)c1ccc(CCNC(=O)Cn2c(=O)c3cccn3c3ccc(F)cc32)cc1,"inconclusive [inhibitor, partial curve]",
Cc1ccc(OCC(O)Cn2c3ccccc3c3ccccc32)cc1 (centres undefined),"inconclusive [inhibitor, partial curve]",
CC(C)(C)c1ccc(S(=O)(=O)NCC(=O)Nc2ccc(-c3nc4ccccc4s3)cc2)cc1,"inconclusive [inhibitor, partial curve]",
COc1cccc2c1Oc1ncccc1N(C(=O)CCC(=O)NCc1ccc(OC(C)C)cc1)C2,,inactive: -8.88%
O=C(CSc1nc2c([nH]c3ccccc32)c(=O)n1-c1ccccc1)Nc1ccccc1C(F)(F)F,"inconclusive [inhibitor, single point]",
COc1ccc(OC)c(Nc2nc(-c3sc(NC(=O)C(C)(C)C)nc3C)cs2)c1,,inactive: 13.6%
O=C(NC1CCCCC1)c1cccnc1C(=O)O,,inactive: -3.82%
COc1cccc(NC(=O)CSC2=Nc3ccccc3C3=NC(CCC(=O)NC4CCCCC4)C(=O)N23)c1 (centres undefined),,inactive: -3.75%
Nc1scc2c(C(=O)N/N=C/c3ccc(Cl)cc3)nn(-c3ccccc3)c(=O)c12,"inconclusive [inhibitor, partial curve]",
O=C(O)c1ccc(-n2c(=O)c3ccccc3c3ccccc3c2=O)cc1,,inactive: 3.55%
O=C(Nc1cccc(F)c1)C1CCN(c2nc3ccccc3nc2C(F)(F)F)CC1,"inconclusive [inhibitor, partial curve]",
C[C@H](N)CCP(=O)(O)O,,inactive: -3.75%
COc1ccccc1CNc1ccc(N2CCCCC2)cc1,"inconclusive [inhibitor, single point]",
CCC(=O)Nc1sc(C(=O)OC)c(C)c1C(=O)OC,,inactive: 1.49%
CCOC(=O)/C(N=Nc1ccc(Cl)cc1)=C(/O)c1ccc([N+](=O)[O-])cc1,"inconclusive [inhibitor, single point]",
O=C(Nc1nnc(-c2ccc3c(c2)CCCC3)o1)C1COc2ccccc2O1 (centres undefined),,inactive: -9.76%
Brc1cccc(-c2nnc(SCc3nc4ccccc4[nH]3)o2)c1,,inactive: -10.5%
CCN1C(=O)/C(=C/c2ccc(N3CCCC3)cc2)NC1=S,"inconclusive [activator, single point]",
